Results as given in patent US20230242876A1 (SHANGHAI SINOBIO BIOTECH, published 2023).

How the values were obtained:
CD3-4-1BBL BsM_D = biological target: T1, CD3-4-1BBL BsM_D; experiment: ELISA, antigen coated at 1 ug/ml, binder titrated from 10 ug/ml, OD450
T1 construct: disulfide-linked dimer; also called anti-CD3/4-1BBL bispecific molecule of dimeric form

CD3-4-1BBL BsM_M = biological target: T2, CD3-4-1BBL BsM_M; experiment: as above
T2 construct: also called anti-CD3/4-1BBL bispecific molecule of monomeric form

B1: human 4-1BB-hFc recombinant protein (Fc fusion)
chain: not shown
notes: Purchased from Novoprotein; also called 4-1BB-hFc recombinant antigen; not shown: human Fc (hFc) of the purchased fusion
Q: Does B1 bind (CD3-4-1BBL BsM_D)?
A: binds

Q: Does B1 bind (CD3-4-1BBL BsM_M)?
A: binds
